# Source: the RNAGym collection of RNA variant scans (doi:10.1073/pnas.2313332121)
# This sample is rich in variants without activity.
# B1: TPR 5TU (parent)
# chain: GGAUCUUCUCGAUCUAACAAAAAAGACAAAUCUGCCACAAAGCUUGAGAGCAUCUUCGGAUGCAGAGGCGGCAGCCUUCGGUGGCGCGAUAGCGCCAACGUUCUCAACUAUGACACGCAAAACGCGUGCUCCGUUGAAUGGAGUUUAUCAUG
# Variants of: B1
# Experiment: polymerase ribozyme fitness, log enrichment relative to wild type (log ratio); higher = more active; in vitro selection for triplet polymerase activity
# In short: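 Both subunits of a heterodimeric triplet polymerase ribozyme were given their own mutant library, built by PCR and transcribed. Each library was annealed with a biotinylated primer, the partner subunit and triplets, incubated frozen at −7 °C, and its extended constructs gel-excised, captured on streptavidin beads and amplified by RT-PCR, all in one round done in triplicate. Fitness is the logarithm of genotype enrichment relative to wild-type enrichment, with replicates averaged by inverse-variance weighting. That logarithm is base 2, and Illumina-sequenced genotypes needed ≥10 input reads and ≥1 read per output.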
row,Variant,polymerase ribozyme fitness (log ratio)
1,GGAUCUUCUCGCUCUAACAAAAAAGACAAAUCUGCCACAAAGCUUGAGAGCAUCUUCGGAUGCAGAGGCGGCAGCCUUCGGUGGCACGAAAGCGCCAACGUUCUCAACUAUGACACGCAAAACGCGUGCUCCGUUGAAUGGAGUUUAUCAUG,≤ -4.2
2,GGAUCUUCUCGGUCUAACAAUAAAGACAAAUGUGCCACAAAGCUUGAGAGCAUCUUCGGAUGCAGAGGCGGCAGCCUACGGUGGCGCGAUAGCCCCAACGUUUUCAACUAUGACACGCAAAACGCGUGCUCCGUAGAAUGGAGUUUAGCAUG,≤ -4.2
3,GGAUCUUCUCGCUCUAACAAAAAAGACAAAUCUGCCACAAAGCUUGAGAGCAUCUUCGGAUGCAGAGGCGGCAGCCUUCGGUGGCGCGAUAGCGCCAACGUUCUCAACUAUGACACGCAAAACGCGUGGUCCGUUGAAUGGAGUUUAUCAUG,-3.9
4,GGAUCUUCUCGGUCUAACUGAAAAGACAAAUCUGCCACAAAGCUUGAGAGCAUCUUAGGAUGCAGAGGCGGCAGCCUUCGGUGGCGGGAUAGCGCCAACGUUCUCAACUAUGACACGCAAAACGCGUGCUCCGUUGAACGGAGUUUAUCAUG,≤ -4.2
5,GGAUCUUCUCGGUCUAACAUAAAAGACAAAUCUGGCACAAAGCUUGAGAGCAUCUUCGGAUGCAGAGGGGGCAGCCUUCGGUGGCGCGAUAGCGCCAACGUUCUCAACUAUGACACGCAAAACGCGUGCUCCGUUGAAUGAAGUUUAUAAUG,≤ -4.2
6,GGAUCUUCUCGCUCGAACAAAAAAGACAAAUCUGCCACAAAGCUUGAGAGCAUCUACGGAUGCAGAGGCGGCAGUCUUCGGUGGCUCGAUAGCGCCAACGUUCUCAACUAUGACACGCAAAACGCGUGAUCCUUUGAAUGGAGUUUAUCAUG,≤ -4.2
7,GGAUCUUCUCGCUCUAACAAAAAAGACAAAUCUGCCACAAAGCUUGAGAGCAUCUUCGGAUGCAGAGUCGGCAGCCUUCGGUGGCGCGAUAGCGCCAACAUUCUCAACUAUGACACGCAAAACGCGUGCUCCGUUGAAUGGUGUUUAUCGUG,≤ -4.2
8,GGAUCUUCUCGGUCUAACAACAAAGACAAAUCUCCCACAAAGCUUGAGAGCAUCUUCGGAUGCAGAGGCGGCAGCCUUCGGUGGCGCGAUAGUGCCAACGUUCUCAACUAUGACACGCAAAACGCGUGCUCCGUAGAAUGGAGUUUAUCAUG,≤ -4.2
9,GGAUCUUCUCGCUCUAACAAAAAAGACAAAUCUGCCACAAAGCUUGAGAGCAUCUUCGGAUGCAGAGGCGGCAGCCUUCGGUGGCGCGAUAGGGCCAUCGUUCUCAACUAUGACACGCAAAACGCGUGCUCCGUUGAAUGGAGUUUAUCAUG,-3.05
10,GGAUCUUCUCGGUCUAACAAGAAAGACAAAUCUGCCACAAAGCUUGAGAGCAUCUACGGAUGCAGAGGCGGCAGCCUUCGGUGGCGAGAUAGCGCCAACGUGCUCAACUAUGACACGCAAAACGCGUGCUCCGGUGAAUGGAGUUUAUCAUG,≤ -4.2
11,GGAUCUUCUCGGUCUAACUAAAAAGACAAAUCUGCCACAAUGCUUGAGACCAUCUUCGGAUGCAGAGGCGGCAGCCUUCGGUGGUGCGAUAGCGCCAACGUUCUCAACUAUGACACGCAAAACGCGUGCUCCAUUGAAUGGAGUUUACCAUG,≤ -4.2
12,GGAUCUUCUCGCUCUAACAAAAAAGACAAAUCUGCCACAAAGCUUGAGAGCAUCUUCGGAUGCAGAGGCGGCAGCCUUCGGUGGCGCGAUAGCGCCAACGUUCUCAACUAUGACACGCAAAACGUGUGCUCCGUUGAAUGGAGUUUAUCAUG,-0.492
13,GGAUCUUCUCGCUCCAACAAAAAAGACAAAUCUGCCACAUAGCUUGAGAGCAUCUUCGGAUGCAGAGGCGGCAGCCUUCGGUGGCGCGAUAGCGCCAAGGUUCUCAACUAUGACACGCAAAACGCGUGCUCCGUUGAAUGGAGUUUAUCAUG,-0.411
14,GGAUCUUCUCGGUCUAACGAAGAAGACAAAUCUGCCACAAAGCUUAAGAGCAUCUUCGGAUGCAGAGGCGGCAGCCUUCGGUGGAGCGAUAGCGACAACGUUCUCAACUAUGAGACGCAAAACGCGUGCUCCGUUGAAUGGCGUUUAUCAUC,≤ -4.2
15,GGAUCUUCUCGGUCUAACAAAAGAGACAAAUCUGCCACAAAGCUUGAGAGCAUCUUCGGAUGCAGAGGCGGCAGCCUUCGGUGGCGCGAGAGCGCCAACGUUCUCAACUAUGACACGCAAAACGCGUGCUCCGUUGAAUGGAGUUAAUCAUG,≤ -4.2
16,GGAUCUUCUCGGUCUUACAAAAAAGACAAAUCUGCCACAAAGCUUGAGAGCAUCUUCGGAUGCAGAGGCGGCAGCCUUCGGUGGAGCGAUAGCGCCAACGUUCUCAACUAUGACGCGCAAAACGCGUGCUCCGUGGAAUGGAGAUUAUCAUG,≤ -4.2
17,GGAUCUUCUCGCUCUAACAAAAAAGACAAAUCAGCCACAAAGCUUGACAGCAUCUUCGGAUGCAGAGGCGGCAGCCUUCGGUGGCGCGAUAGCGCCAACGUUCUCAACUAUGACACGCAAAACGCGGGCUCCGUUGAAUCGAGUUUAUCAUG,≤ -4.2
18,GGAUCUUCUCGCUCUAACAAAAAAGACAAAUCUGCCACAAAGCUUGAGAGCAUCUUCGGAUGCAGAGGCGGCAGCCUUCGGUGGGGCGAUAGCGCCAACGUUCUCAACUAUGACACGCAAAACGCGUGCUCCGUUGAAUGGAGUUUAUCAUG,-2.59
19,GGAUCUUCUCGCUCUAACAAAAAAGACAAAUCUGCCACAAAGCUUGAGAGCAUCUUAGGAUGCAGAGGCGGCAGCCUUCGGUGUCGCGAAAGGGCCAAUGUUCUCAACUAUGACACGCAAAACGCGUGCUCCGUUUAAUGGAGUUUAUCAGG,≤ -4.2
